Among all 48,000 compounds or so, about 120 (0.25%) were called active. Not shown: some 4% with an inconclusive outcome. Calls come from the whole dose curve; as a rule, active = well fitted activation curve with a large enough effect; inconclusive = small, poorly fitted or top-dose-only effect, or another doubt; inactive = no such curve, though single readings can be large or run the other way. The list shows a part of the results.
Experiment: Primary qHTS for Identification of Small Molecule Activators of Huntingtin-Antisense Promoter Activity; note: nearly all actives have a fitted effect of over 55% in size
Settings: HEK293 HTT-AS promoter firefly luciferase reporter (activity 0% = vehicle and -100% = no light), 24 h; series mostly up to 57.5 µM; activity change, positive = activation: at the top concentration
In short: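 Luminescence was read after Dual-Glo reagent and a 10 min room-temperature incubation. Values were normalized to vehicle (0% activity) and zero RLU (-100% activity). Reporter HEK293 cells had been exposed to compounds (up to 57.5 uM final) for 24 h.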

Activity change, positive = activation, inactive:
CC(C)c1ccc(OC(=O)c2cc(-c3ccc(Cl)cc3)on2)cc1 -16.7%
Cc1cc(F)ccc1S(=O)(=O)Nc1ccc2c(c1)CCCN2C(=O)c1cccs1 -25.1%
COc1ccc(N2C(=O)C(CC(=O)Nc3ccc(F)cc3)N(Cc3ccc4c(c3)OCO4)C2=O)cc1 (stereo not drawn) 0.999%
COC(=O)c1cnc(NCc2ccc(F)cc2)c2ccccc12 -15%
CCN(CC)C(=O)Cn1c(=O)nc(-c2ccccc2F)c2cc(Cl)ccc21 0.395%
CCCNC(=O)N1[C@H](c2ccc(C)s2)[C@@H](C)C(=O)[C@@H](C)[C@@H]1c1ccc(C)s1 -11.4%
NC(=O)COCCN1CCN(C(c2ccccc2)c2ccc(Cl)cc2)CC1 (stereo not drawn) -10.7%
O=C1c2[nH]nc(-c3ccccc3O)c2C(c2ccccc2F)N1Cc1ccncc1 (stereo not drawn) 11.6%
CCOC(=O)Cc1ccc(NC(=O)NCc2cccn2Cc2ccccc2)cc1 -23.6%
COc1ccc(-n2c(=O)c3sc4ccccc4c3n(CC(=O)Nc3ccccc3F)c2=O)cc1 -7.59%
CCC(=O)N1CCc2cc(S(=O)(=O)CCC(=O)N3CCN(c4cc(C)ccc4C)CC3)ccc21 -5.36%
CCOc1ccc(NC(=O)c2c(NC(=O)Cc3ccccc3)sc3c2CCC(C)C3)cc1 (stereo not drawn) -28.3%
COc1ccc(OC)c(NC(=O)CN(C)S(=O)(=O)c2ccc3[nH]c4c(c3c2)CCCC4)c1 -28.6%
CCOc1ccc(C(=O)NCC(c2ccc3c(c2)OCO3)N2CCN(c3ccccc3F)CC2)cc1 (stereo not drawn) -28.7%
COc1ccc(Cn2nnc(C(=O)Nc3cc(OC)ccc3OC)c2N)cc1 -7.01%
COCCCNC(=O)C1CCN(Cc2nc(-c3ccc(OC)c(OC)c3)oc2C)CC1 -8.01%
Cc1ccc(NC(=O)Cn2c(=O)n(Cc3ccco3)c(=O)c3ccc(C(=O)NC4CCCC4)cc32)c(C)c1 -24.3%
CCn1c(=O)cc(SCC(=O)NCCc2cc(OC)ccc2OC)c2ccccc21 -13.6%
CCOc1ccc(NC(=O)c2c(NCc3ccc(C)o3)sc3c2CCC(C)C3)cc1 (stereo not drawn) -20.7%
COc1ccc(C)cc1Nc1nc2cc(Cl)c(Cl)cc2nc1-n1nc(C)cc1C -0.26%
COc1ccc(C)cc1NC(=O)CSc1nc(=O)n(Cc2ccncc2)c2c1CCC2 -36.3%
C=Cc1ccc(CN2C(=O)N(c3ccc(CC)cc3)S(=O)(=O)c3ccccc32)cc1 -30%
Cc1ccc(NC(=O)Cn2c(=O)n(-c3ccccc3)c(=O)c3c4c(sc32)CCCC4)cc1 -2.68%
COc1ccc(C)cc1NC(=O)NCc1ccc2c(c1)CCN2C(=O)c1ccccc1 -47.8%
COc1ccc(C(=O)NCCc2sc(-c3ccc(Cl)cc3)nc2C)c(OC)c1 -24.1%
Cc1ccc(C)c(CN2C(=O)c3ccccc3S(=O)(=O)c3ccc(C(=O)N4CCN(c5ccccn5)CC4)cc32)c1 -37.6%
COc1cc(NC(=O)CN2C(=O)COc3ccc(S(=O)(=O)N4CCCCC4)cc32)cc(OC)c1 -23%
CCc1cccc(N2C(=O)N(CC(=O)NCc3cccc(OC)c3OC)c3ccccc3S2(=O)=O)c1 -32%
CCCN1C(=O)C(Cc2nc3ccccc3c(=O)n2-c2ccccc2)c2cc(C)ccc21 (stereo not drawn) -26.4%
COC(=O)c1ccc(OCC2c3cc(OC)c(OC)cc3CCN2C(=O)C(C)C)cc1 (stereo not drawn) -27.7%
CCOC(=O)COc1ccc(C)cc1C(=O)c1ccn2nc(-c3ccc(C)cc3)cc2n1 -7.52%
O=C(CSc1ncc2c(n1)-c1ccccc1N(Cc1ccccc1)S2(=O)=O)Nc1ccccc1 12.5%
COCCNC(=O)c1ccc(CSc2nc3ccncc3n2Cc2ccccc2)cc1 8.87%
CCCCNC(=O)CSc1nc2ccccc2nc1Cc1ccc(C)cc1 -5.85%
COc1cccc(CN2C(=O)c3ccccc3Sc3ccc(C(=O)N(C)Cc4ccccc4)cc32)c1 -25.3%
COc1ccc(-c2nnc(SCc3cc(=O)c4cc(C)cc(C)c4[nH]3)n2C)cc1 -52.6%
COc1cccc2cc(-c3nc(Nc4cccc(C)c4)sc3C)c(=O)oc12 -8.41%
O=C(c1cccs1)c1cn(CCOc2ccccc2F)c2ccccc12 -21.4%
CC(C)c1ccc(S(=O)(=O)c2nnn3c2nc(N2CCN(C)CC2)c2sccc23)cc1 -2.89%
COc1cccc(CNC(=O)c2ccc3nc(-c4ccc(F)cc4)c(-c4ccc(F)cc4)nc3c2)c1 -34.4%
COc1cc(C2c3c(-c4ccccc4O)n[nH]c3C(=O)N2CCO)ccc1OCc1ccccc1 (stereo not drawn) -26.3%
CC(C)CN(C[C@@H](O)[C@H](Cc1ccccc1)NC(=O)O[C@H]1CO[C@H]2OCC[C@H]21)S(=O)(=O)c1ccc(N)cc1 -25%
CCOC(=O)c1ccccc1NC(=O)c1c2c(nc3ccccc13)C(=O)N(C1CCCCC1)C2 6.13%
O=C(CN1C(=O)COc2ccc(S(=O)(=O)N3CCCC3)cc21)N1CCN(c2ccccc2)CC1 -16.1%
COc1ccc2c(Sc3ccccc3)c(C(=O)NCCc3ccc(Cl)cc3)[nH]c2c1 0.682%
O=C(CSc1ncc2c(n1)-c1ccc(Cl)cc1N(Cc1ccccc1)S2(=O)=O)Nc1ccc(F)c(F)c1 -3.26%
CCOC(=O)C1CCCN(CC(=O)N2CCCc3c2c(=O)oc2ccc(OCc4ccccc4)cc32)C1 (stereo not drawn) 0.331%
CCN1CCN(CCCNC(=O)c2cc3c(s2)-c2ccccc2OC3)CC1 -6.14%
O=C(NCc1ccc2c(c1)CCN2C(=O)c1ccccc1)c1cc2ccccc2[nH]1 -20.5%
CCc1ccc(NC(=O)c2sc3ncnc(N(C)C4CCCCC4)c3c2C)cc1 -6.33%
CCOc1ccc(C2C(C(N)=O)=C(C)Nc3nc(SCc4ccccc4)nn32)cc1 (stereo not drawn) -15.1%
COc1ccc(CNC(=O)Nc2ccc3c(c2)N(C)C(=O)c2ccccc2S3)cc1 -47.6%
CC(=O)C1=C(c2ccc(C)cc2)N(C(C)=O)n2c(nnc2C2CCCCC2)S1 0.0565%
O=C(COc1ccc(F)cc1)OCc1cc(=O)n2nc(C3CCCCC3)sc2n1 7.81%
Cc1cc(-c2ccc(C)c(S(=O)(=O)NC(c3cccs3)C(C)C)c2)on1 (stereo not drawn) -42.2%
O=C(NCCS(=O)(=O)N1CCN(c2ccccc2)CC1)C1CC(=O)N(c2ccc(F)cc2)C1 (stereo not drawn) -13.5%
COc1ccc(NC(=O)CCSc2nc(-c3ccc(OC)cc3)cc(C(F)(F)F)n2)cc1 -12.5%
CCc1nnc(SCc2c(F)cccc2Cl)c2cc3sccc3n12 4.16%
